In PubChem BioAssay AID652104 (National Center for Advancing Translational Sciences (NCATS), 2013):
Screen size: about 410,000 compounds; about 7,200 (1.8%) were called active. Inconclusive results, whose numbers are uncertain, are shown with a selection of clear calls. Calls follow the shape of the dose curve; as a rule, active = well fitted activation curve with a large enough effect; inconclusive = small, poorly fitted or top-dose-only effect, or another doubt; inactive = no such curve, though single readings can be large or run the other way. No potency is given beside an inconclusive call; the fits are too rough.

test: qHTS of TDP-43 Inhibitors; conditions: TDP-43 expressing yeast growth rescue, BacTiter-Glo, 24 h; growth rescue (activation): at 46.1 µM (top of the series) unless noted; also: nearly all actives have a fitted effect of over 50% in size; as to growth rescue (activation): % of control where 0% means no effect
How it was run: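 Galactose-induced TDP-43 yeast, OD600=0.02, compound pinned; 24 hr, 30 deg C; BacTiter-Glo luminescence for growth. Inhibitors of TDP-43 toxicity read as activators.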
Potency is read from the fitted curve at half-maximal effect; tags tell the direction and shape of the fitted curve.

Compound | Potency | growth rescue (activation)
C=CCn1cccc(/C=C/C(=O)c2ccc(C(C)(C)C)cc2)c1=S | inconclusive [activator, partial curve] | –
COc1cccc(C(=O)N2CCC(C(=O)Nc3cccc(Cl)c3)CC2)c1 | inconclusive [activator, full curve] | –
Cc1ccc(N2C3=C(C(=O)CC(C)(C)C3)C(c3cn(C)nc3C)C3=C2CC(C)(C)CC3=O)cc1 | inconclusive [activator, single point] | –
Cc1cc(Cl)c2oc(C(=O)N(C)CC3CCOCC3)c(C)c2c1 | inconclusive [activator, single point] | –
COC(=O)c1nc(N)sc1C(C)C | inconclusive [activator, single point] | –
O=C(C/C=N/OCc1ccc(Cl)cc1Cl)c1ccccc1 | inconclusive [activator, single point] | –
CCCNC(=O)Cc1c(O)c2ccccc2[nH]c1=O | – | inactive: -19.2%
OCCSc1nc(-c2ccccc2)nc2c1CCC2 | inconclusive [activator, partial curve] | –
O=C(COc1ccccc1)NNC(=S)NC(=O)c1ccc(Cl)cc1Cl | active: 3.55 µM | –
CC1CCCCN1S(=O)(=O)c1ccc2[nH]c(=O)cc(C(=O)NCCc3ccc(Cl)cc3)c2c1 (stereo not given) | – | inactive: 2.84%
O=[N+]([O-])c1ccc(C2=NN(CCO)C(=Nc3ccc(OC(F)(F)F)cc3)SC2)cc1 | inconclusive [activator, single point] | –
COc1ccccc1NC(=S)N(Cc1ccc(Cl)cc1)CC1CCC(C(=O)O)CC1 (stereo not given) | inconclusive [activator, single point] | –
Cc1ccc(NC(=O)c2ccnc(C(C)(C)C)c2)cc1 | inconclusive [activator, partial curve] | –
Cc1ccccc1NCC(=O)c1ccc(Br)cc1 | – | inactive: -8.41%
COc1cccc(-n2cc(C(=O)Nc3ccccc3C(N)=O)c3ccccc3c2=O)c1 | – | inactive: 0%
O=C(CSc1nnc(Cc2ccccc2)n1Cc1ccccc1)NCc1ccco1 | – | inactive: -38.2%
COc1ccc(-n2cc(C(=O)Nc3ccccc3C#N)c3ccccc3c2=O)cc1 | – | inactive: 9.29%
O=C1CCCC(O)=C1Sc1cc(Cl)c(Cl)cc1Cl | inconclusive [activator, single point] | –
CC12CCC(=O)N1c1c(sc3nc(N4CCOCC4)c4c(c13)CCCC4)C(=O)N2 (stereo not given) | inconclusive [activator, full curve, poor fit] | –
COc1cc(Br)cc(/C=C/c2ccc3cccc(O)c3n2)c1O | inconclusive [activator, full curve, poor fit] | –
CCOC(=O)C(CC)Sc1nnc2[nH]c(=O)cc(C)n12 (stereo not given) | inconclusive [activator, full curve, poor fit] | –
O=C(CSc1nnc(-c2ccncc2)o1)c1cccc([N+](=O)[O-])c1 | inconclusive [activator, single point] | –
NC(=O)CC(NC(=O)Cc1cccc2ccccc12)c1ccc(N2CCC(N3CCCC3)CC2)c([N+](=O)[O-])c1 (stereo not given) | inconclusive [activator, partial curve] | –

Compound | Potency | growth rescue (activation)
Cc1ccccc1NC1=C(Cl)C(=O)OC1OC(=O)c1ccccc1C (stereo not given) | active: 20 µM | –
COc1ccc(CNC(=O)c2ccc(-c3c(C)noc3C)c3ccoc23)cc1OC | inconclusive [activator, full curve, poor fit] | –
CCOc1ccc(C(C(=O)NCC2CCCO2)N(Cc2cccnc2)C(=O)c2snc(C(N)=O)c2N)cc1 (stereo not given) | – | inactive: -20.1%
O=C(Nc1ccc2c(c1)OCCO2)C(c1ccccc1)n1c(=O)c(-c2cc3ccccc3[nH]2)nc2ccccc21 (stereo not given) | inconclusive [activator, full curve] | –
CC(=O)c1c(C)oc2ccc(N(C(=O)c3ccncc3)S(=O)(=O)c3ccc(F)cc3C)cc12 | active: 20 µM | –
Cc1cc(C)cc(NC(=O)CN(C)S(=O)(=O)c2ccc3c(c2)CCC(=O)N3)c1 | inconclusive [activator, partial curve] | –
CC(C)N(C(=O)COC(=O)c1cc(Cl)cc(Cl)c1N)C(C)C | – | inactive: -5.89%
O=[N+]([O-])c1cccc(C2NCC(c3ccccc3Cl)c3c2[nH]c2ccccc32)c1 (stereo not given) | inconclusive [activator, single point] | –
N#CNC(N)=Nc1cccc(Cl)c1 | – | inactive: 10.7%
Cn1cccc1C(=O)N1CCN(c2cccc(C(F)(F)F)c2)CC1 | inconclusive [activator, single point] | –
O=C(c1cnc2nc3ccccc3n2c1)c1cc(F)ccc1O | inconclusive [activator, single point] | –
CCOC(=O)c1ccc(NC(=O)C2(N3C(=O)c4ccccc4C3=O)CCCC2)cc1 | inconclusive [activator, partial curve] | –
CC(NC(=O)C(Cc1ccccc1)=NO)c1ccccc1 (stereo not given) | inconclusive [activator, partial curve, poor fit] | –
Cc1nn2c(=O)cc(COC(=O)c3ccc(NC(=O)c4ccc(C(C)(C)C)cc4)cc3)nc2s1 | – | inactive: 9.35%
CCOc1ncccc1C(=O)Nc1nc(SC)ns1 | inconclusive [activator, partial curve] | –
CCc1ccc(Cn2c(CNS(=O)(=O)c3ccc(Cl)s3)nc3cccnc32)cc1 | – | inactive: 16.7%
CNC(=O)N(C1=NCC(C)S1)c1ccc(F)cc1F (stereo not given) | inconclusive [activator, single point] | –
COc1cc(-c2nc3cnccn3c2Nc2ccc(C(C)C)cc2)ccc1O | inactive | –
COc1cc(/C=C(\C#N)C(=O)c2ccc(O)c(O)c2)cc(I)c1O | – | inactive: 3.53%
COc1ccc(OCc2nnc3n2N=C(c2ccc(OC)cc2)CS3)cc1 | inconclusive [activator, single point] | –
Cc1cc2sc(C(=O)O)c(C)c2s1 | – | inconclusive: -38.8% [activator]
O=C(O)CCC(=O)Nc1ccc(Br)cc1C(=O)c1ccc(Cl)cc1 | inconclusive [activator, single point] | –
